# Experimental data published in the supplement of paper PMC3334620.
# Over roughly 33,000 sequences, “E-score (-0.5 to 0.5)” has its median near -0.053; the highest 2% begin near 0.37. Some of the results follow.
# Target: Hap1 (UniProt P0CE41)
# Experiment: PBM E-score (8-mer binding enrichment) (E-score (-0.5 to 0.5)); higher = stronger / more preferred TF binding; most listed sequences are background and not binding sites
# Details: protein concentration: 200 nM; construct: GST-DNA-binding domain
# Procedure, shortened: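 E-scores (a modified Wilcoxon-Mann-Whitney statistic) were assigned by the Universal PBM Analysis Suite to every ungapped eight-base word pooled with its reverse complement. The input came from universal all-10-mer Agilent arrays made double-stranded by primer extension and probed with GST-tagged yeast transcription factors at about 100-200 nM. Fluorescent anti-GST detected bound protein, and masliner normalised the scans.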
# Chain of UniProt P0CE41 (P0CE41 whole entry): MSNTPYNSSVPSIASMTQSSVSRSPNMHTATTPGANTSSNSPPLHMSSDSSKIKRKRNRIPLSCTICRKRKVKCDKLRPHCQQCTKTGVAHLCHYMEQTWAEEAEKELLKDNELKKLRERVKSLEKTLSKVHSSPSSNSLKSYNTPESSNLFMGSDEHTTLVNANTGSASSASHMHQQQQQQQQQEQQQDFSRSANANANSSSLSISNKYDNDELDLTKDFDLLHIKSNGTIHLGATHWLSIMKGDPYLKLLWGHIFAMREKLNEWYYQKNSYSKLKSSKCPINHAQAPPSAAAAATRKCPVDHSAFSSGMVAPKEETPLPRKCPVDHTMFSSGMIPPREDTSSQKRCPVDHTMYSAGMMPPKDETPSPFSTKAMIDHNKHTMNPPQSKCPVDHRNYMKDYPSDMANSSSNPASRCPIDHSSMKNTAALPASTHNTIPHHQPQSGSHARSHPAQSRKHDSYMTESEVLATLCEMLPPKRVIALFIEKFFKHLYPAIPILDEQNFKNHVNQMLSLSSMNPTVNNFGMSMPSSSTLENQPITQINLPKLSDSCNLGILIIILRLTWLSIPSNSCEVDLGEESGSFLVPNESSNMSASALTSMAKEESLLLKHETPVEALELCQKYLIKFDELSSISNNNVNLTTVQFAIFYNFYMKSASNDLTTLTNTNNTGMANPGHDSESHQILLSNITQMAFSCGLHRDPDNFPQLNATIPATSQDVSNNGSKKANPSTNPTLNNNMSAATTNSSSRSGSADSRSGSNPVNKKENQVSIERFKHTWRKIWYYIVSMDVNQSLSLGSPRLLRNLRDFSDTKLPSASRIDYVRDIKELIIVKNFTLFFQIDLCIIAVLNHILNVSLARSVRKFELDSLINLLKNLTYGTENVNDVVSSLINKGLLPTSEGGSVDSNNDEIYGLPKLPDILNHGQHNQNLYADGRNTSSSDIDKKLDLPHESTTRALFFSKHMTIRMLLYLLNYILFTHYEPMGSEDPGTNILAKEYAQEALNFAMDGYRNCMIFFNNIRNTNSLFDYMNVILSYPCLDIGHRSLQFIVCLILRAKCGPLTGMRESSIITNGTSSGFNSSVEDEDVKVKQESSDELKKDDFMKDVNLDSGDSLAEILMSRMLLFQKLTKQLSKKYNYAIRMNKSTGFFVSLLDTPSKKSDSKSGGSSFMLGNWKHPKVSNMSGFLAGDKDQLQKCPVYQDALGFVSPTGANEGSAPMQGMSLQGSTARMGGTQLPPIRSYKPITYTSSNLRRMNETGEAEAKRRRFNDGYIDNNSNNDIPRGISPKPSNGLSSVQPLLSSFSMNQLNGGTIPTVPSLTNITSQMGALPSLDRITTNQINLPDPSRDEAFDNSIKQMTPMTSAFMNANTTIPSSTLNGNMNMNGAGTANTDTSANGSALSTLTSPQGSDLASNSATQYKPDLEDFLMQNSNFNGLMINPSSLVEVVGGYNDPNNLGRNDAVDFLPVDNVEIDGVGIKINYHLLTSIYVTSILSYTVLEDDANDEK
row,Sequence,PBM E-score
1,GCAGAGCC,-0.00883
2,CTATTGCC,0.145
3,GAGTGGGC,0.00462
4,AATTCTGC,-0.0329
5,AAGCGGCG,0.116
6,TACATCAA,-0.0848
7,AGATTTGG,-0.187
8,CCGACTCG,0.24
9,CACAACCA,-0.00097
10,AACTGTAG,-0.314
11,AAGTATCC,-0.0191
12,CGGACACG,0.358
13,AAATACAA,-0.0957
14,CGGGGGTC,0.19
15,CACTTCGC,-0.198
16,GCCTGTAC,-0.0226
17,CGACGAGA,-0.0197
18,CCGGCTCG,0.352
19,GGGAACCC,0.0724
20,CATGAAAA,-0.261
21,AACAGAGA,-0.0674
22,ATGGGGCC,-0.141
23,CTATGTTC,0.0312
24,AATAGTAT,0.103
25,CAATGAAG,-0.149

row,Sequence,PBM E-score
1,CCATCAAC,-0.236
2,GCCAGCGA,-0.205
3,AGACCACT,-0.163
4,AATAAGTC,-0.196
5,ACACTAGC,-0.0954
6,AACGGTTA,0.122
7,AACTTATT,0.157
8,GAGCTACC,-0.0568
9,GCTGTGCC,-0.0329
10,CCAATAAG,-0.286
11,TGCCCGAA,0.187
12,GAGAAGCC,0.152
13,ACGCCTTA,-0.275
14,GTATCCGA,0.304
15,CCACGGAA,0.348
16,GAAGTCGC,0.00691
17,CTTCATAA,-0.146
18,CCACTAGG,-0.312
19,AATACCGC,0.304
20,GGGTCCTA,-0.0923
21,ACTTCCAT,0.0711
22,CATTGACC,-0.0136
23,CGACAACA,0.0425
24,ATTTTCCA,-0.0537
25,GGTCGCAC,0.095

row,Sequence,PBM E-score
1,CGATTACC,0.269
2,AGGCTAAG,-0.138
3,AGACAAAT,-0.193
4,CTTCGCTA,-0.00511
5,TCAGAGAA,-0.316
6,ACCGTATC,0.073
7,CATATAAG,-0.0747
8,AGAGGATG,-0.069
9,AACACAGG,-0.207
10,CTAATGCC,0.215
11,GGTATCGA,0.00812
12,ACCTCACG,-0.144
13,CGTGAACC,0.0247
14,AGTTCGAA,-0.0481
15,CTTCGGTA,0.158
16,GCCTCTTA,-0.0682
17,GTAACAAA,0.00584
18,CACTGACC,0.133
19,CTCTCAAC,-0.118
20,ATTCAGTG,-0.00274
21,AGACTATC,-0.15
22,TAGGGAGA,-0.115
23,AGGCGTGC,-0.0618
24,ACAGTAGG,-0.195
25,AGCGCACG,0.0726

row,Sequence,PBM E-score
1,GAACACAA,-0.25
2,ATCGCGCA,-0.101
3,GTCATCAC,-0.249
4,AATATTAG,-0.0457
5,GCCTCTCC,-0.282
6,ATGCTGAA,-0.183
7,AAGCCATC,0.0118
8,ATTAGTTA,0.115
9,CAGCCGAC,0.183
10,TCCTTAGA,-0.257
11,CACGTCCA,-0.234
12,AGACCTGA,-0.0959
13,TGATATAA,-0.0236
14,ATCCCCTG,-0.324
15,ACTGCTTG,-0.109
16,ACTACAGA,-0.0671
17,CGTCAGTA,-0.104
18,AAAACGAG,-0.23
19,GAGGGAGC,-0.175
20,CCGGCGAG,0.309
21,AGGTTTAA,-0.103
22,TAGAGCGA,-0.198
23,TACGAAAA,-0.198
24,ACTAAAAC,0.0373
25,AGCTGTCC,-0.118

row,Sequence,PBM E-score
1,TACGCCTA,-0.258
2,AGAGTTTG,-0.113
3,GGGTGTCA,0.0288
4,CCCCGACC,0.238
5,CGGCAACA,0.196
6,AATAATGC,0.142
7,CGTCACCA,-0.282
8,AAACCTGC,-0.148
9,GTTCGCCA,0.0159
10,GCCCGCAA,0.199
11,AAAGGACT,-0.0254
12,AAACTAAG,-0.174
13,ACAGATAT,-0.0542
14,ACGTTTCG,-0.0258
15,CATCAAAA,-0.0602
16,GAATAGGA,-0.00614
17,ATCATCAT,-0.177
18,CGGAGCAA,0.394
19,CGGATCTA,0.404
20,CTCTTACA,-0.349
21,ACACGCCA,-0.0689
22,ACTCCCGC,0.151
23,ATGTAAAC,0.123
24,CTGGGAAG,-0.191
25,AAAGGGCC,0.0246

row,Sequence,PBM E-score
1,CTGAGAAC,-0.202
2,TCATTTCA,-0.079
3,CAAATGTC,-0.0154
4,ATTGGCGC,-0.035
5,GGGGTATA,0.103
6,CGGCATTC,0.284
7,GGACAAAA,0.342
8,ATGCACCC,0.0505
9,ACATGGAC,-0.143
10,AGCCCACA,-0.284
11,CACTCGAC,-0.079
12,GCTTGCAA,-0.0866
13,TAATCTCA,-0.0629
14,ACGGGCTA,0.0774
15,CTTCTGAA,-0.0945
16,ACATGGCG,-0.13
17,ATAGGTAG,-0.053
18,AAGTTAAA,-0.168
19,CCGCGACG,0.155
20,AAAAAGAG,-0.187
21,ACTTAAGC,0.0112
22,CGGGACGA,0.0655
23,CCAGGGCC,-0.191
24,GGAATGGA,-0.0214
25,AGACCGAG,0.373

row,Sequence,PBM E-score
1,GCGAATAA,0.128
2,AAGTCCAG,-0.056
3,ACGATAAG,0.245
4,AATTCTAC,-0.113
5,CATAAGAC,0.0262
6,ATGGGTAG,-0.264
7,TGACCGAA,0.287
8,ACTGTAAA,-0.0288
9,AAACCAAA,-0.0263
10,GCCGACAC,0.184
11,GAGGATTA,-0.0987
12,CTTCGATA,-0.0393
13,GAACTTGC,-0.0238
14,ACCCGGAG,0.423
15,GCAGCACA,-0.0485
16,GGCAGTAA,0.107
17,AGTGTGCC,-0.0069
18,CGGGGGTA,0.425
19,CCCGAAAA,0.426
20,AATGCTGT,-0.168
21,AGGCTAAT,0.0538
22,CACGCTTA,-0.11
